# Results taken from the supplement of paper PMC8728848.
# This is one part of the list.
# B1: SP16663B-bot-321-25-321 (Bacteroides ovatus) (protein)
# chain: DDDDEVTMNSKFYLSTKVFPVDSYEASLSVILKDNSVVVNELQPNYRFVACATERLSKDVKITADSDDNLVSAYNKANDTEYNILPAENYSFTNKTVTIENGESVSGDSIKIELLNVGSLTTEGGYLLPVTISSIEGNNLDALSSNRGVVYLKIQNIHVNVESGQPAEGTLIADRSGWTVKVAPTTRGDAKNLIDGTNSDVARDGGAEYWLTVDIGKVQTLTGIRNKCYASSYSPTAVEVFTSSDGAKWKSIGAVTISKSGTQYIKFSKAVETRYLKYYVKQGPNTVSLTEFDLYAK
# Tests used:
# Assay in all cases: glycan array binding signal (z-score within array); higher = stronger binding
# Conditions in all cases: glycan notation: IUPAC condensed, linker removed
# [1] = biological target: Gal(b1-3)GlcNAc(b1-3)Gal(b1-4)GlcNAc(b1-2)[Gal(b1-3)GlcNAc(b1-3)Gal(b1-4)GlcNAc(b1-6)]Man(a1-6)[Gal(b1-3)GlcNAc(b1-3)Gal(b1-4)GlcNAc(b1-2)Man(a1-3)]Man(b1-4)GlcNAc(b1-4)[Fuc(a1-6)]GlcNAc
# Outline: (§1)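 The binding signal is a Z-score computed within each array. Data were drawn from 3228 arrays in the Consortium for Functional Glycomics database, restricted to those with a known protein sequence. Scores were averaged over arrays of the same protein sequence at different concentrations or buffers, and over linkers, and negative values can be taken as non-binding.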
# [2] = biological target: Gal(b1-3)GlcNAc(b1-3)Gal(b1-4)GlcNAc(b1-3)Gal(b1-4)GlcNAc(b1-2)[Gal(b1-3)GlcNAc(b1-3)Gal(b1-4)GlcNAc(b1-3)Gal(b1-4)GlcNAc(b1-6)]Man(a1-6)[Gal(b1-3)GlcNAc(b1-3)Gal(b1-4)GlcNAc(b1-3)Gal(b1-4)GlcNAc(b1-2)Man(a1-3)]Man(b1-4)GlcNAc(b1-4)[Fuc(a1-6)]GlcNAc
# Outline: as §1
# [3] = biological target: Gal(b1-3)GlcNAc(b1-3)Gal(b1-4)GlcNAc(b1-6)[Gal(b1-3)GlcNAc(b1-3)]Gal(b1-4)Glc
# Outline: as §1
# [4] = biological target: Gal(b1-3)GlcNAc(b1-3)Gal(b1-4)[Fuc(a1-3)]GlcNAc
# Outline: as §1
# [5] = biological target: Gal(b1-3)GlcNAc(b1-3)Gal(b1-4)[Fuc(a1-3)]GlcNAc(b1-6)[Gal(b1-3)GlcNAc(b1-3)]Gal(b1-4)Glc
# Outline: as §1
# [6] = biological target: Gal(b1-3)GlcNAc(b1-3)GalNAc
# Outline: as §1
# [7] = biological target: Gal(b1-3)GlcNAc(b1-6)Gal(b1-4)GlcNAc
# Outline: as §1
# [8] = biological target: Gal(b1-3)GlcNAc(b1-6)GalNAc
# Outline: as §1
# [9] = biological target: Gal(b1-3)GlcNAc(b1-6)[Gal(b1-3)]GalNAc
# Outline: as §1
# Gal(b1-3)GlcNAc6S = biological target: Gal(b1-3)GlcNAc6S
# Outline: as §1
# [10] = biological target: Gal(b1-3)[Fuc(a1-4)]GlcNAc
# Outline: as §1
# [11] = biological target: Gal(b1-3)[Fuc(a1-4)]GlcNAc(b1-2)Man
# Outline: as §1
# [12] = biological target: Gal(b1-3)[Fuc(a1-4)]GlcNAc(b1-2)Man(a1-3)[Gal(b1-3)[Fuc(a1-4)]GlcNAc(b1-2)Man(a1-6)]Man(b1-4)GlcNAc(b1-4)[Fuc(a1-6)]GlcNAc
# Outline: as §1
# [13] = biological target: Gal(b1-3)[Fuc(a1-4)]GlcNAc(b1-3)Gal(b1-3)[Fuc(a1-4)]GlcNAc
# Outline: as §1
# [14] = biological target: Gal(b1-3)[Fuc(a1-4)]GlcNAc(b1-3)Gal(b1-4)[Fuc(a1-3)]GlcNAc
# Outline: as §1
# [15] = biological target: Gal(b1-3)[Fuc(a1-4)]GlcNAc(b1-6)GalNAc
# Outline: as §1
# [16] = biological target: Gal(b1-3)[GlcNAc(b1-6)]GalNAc
# Outline: as §1
# [17] = biological target: Gal(b1-3)[Neu5Ac(a2-6)]GalNAc
# Outline: as §1
# [18] = biological target: Gal(b1-3)[Neu5Ac(a2-6)]GlcNAc(b1-4)Gal(b1-4)Glc
# Outline: as §1
# [19] = biological target: Gal(b1-3)[Neu5Ac(b2-6)]GalNAc
# Outline: as §1
# Gal(b1-4)Gal = biological target: Gal(b1-4)Gal
# Outline: as §1
# [20] = biological target: Gal(b1-4)GalNAc(a1-3)[Fuc(a1-2)]Gal(b1-4)GlcNAc
# Outline: as §1
# [21] = biological target: Gal(b1-4)GalNAc(b1-3)[Fuc(a1-2)]Gal(b1-4)GlcNAc
# Outline: as §1
# Gal(b1-4)Glc = biological target: Gal(b1-4)Glc
# Outline: as §1
# Gal(b1-4)Glc6S = biological target: Gal(b1-4)Glc6S
# Outline: as §1
# Gal(b1-4)GlcNAc = biological target: Gal(b1-4)GlcNAc
# Outline: as §1
# [22] = biological target: Gal(b1-4)GlcNAc(a1-6)Gal(b1-4)GlcNAc
# Outline: as §1
# Gal(b1-4)GlcNAc(b1-2)Man = biological target: Gal(b1-4)GlcNAc(b1-2)Man
# Outline: as §1
# [23] = biological target: Gal(b1-4)GlcNAc(b1-2)Man(a1-3)Man(b1-4)GlcNAc(b1-4)GlcNAc
# Outline: as §1
# [24] = biological target: Gal(b1-4)GlcNAc(b1-2)Man(a1-3)[Gal(b1-4)GlcNAc(b1-2)Man(a1-6)]Man(b1-4)GlcNAc(b1-4)GlcNAc
# Outline: as §1
# [25] = biological target: Gal(b1-4)GlcNAc(b1-2)Man(a1-3)[Gal(b1-4)GlcNAc(b1-2)Man(a1-6)]Man(b1-4)GlcNAc(b1-4)[Fuc(a1-6)]GlcNAc
# Outline: as §1
# [26] = biological target: Gal(b1-4)GlcNAc(b1-2)Man(a1-3)[Gal(b1-4)GlcNAc(b1-2)Man(a1-6)][Gal(b1-4)GlcNAc(b1-4)]Man(b1-4)GlcNAc(b1-4)[Fuc(a1-6)]GlcNAc
# Outline: as §1
# [27] = biological target: Gal(b1-4)GlcNAc(b1-2)Man(a1-3)[Gal(b1-4)GlcNAc(b1-2)Man(a1-6)][GlcNAc(b1-4)]Man(b1-4)GlcNAc(b1-4)[Fuc(a1-6)]GlcNAc
# Outline: as §1
# [28] = biological target: Gal(b1-4)GlcNAc(b1-2)Man(a1-3)[GlcNAc(b1-2)Man(a1-6)]Man(b1-4)GlcNAc(b1-4)GlcNAc
# Outline: as §1
# [29] = biological target: Gal(b1-4)GlcNAc(b1-2)Man(a1-3)[GlcNAc(b1-4)][Gal(b1-4)GlcNAc(b1-2)Man(a1-6)]Man(b1-4)GlcNAc(b1-4)GlcNAc
# Outline: as §1
# [30] = biological target: Gal(b1-4)GlcNAc(b1-2)Man(a1-3)[Man(a1-6)]Man(b1-4)GlcNAc(b1-4)GlcNAc
# Outline: as §1
# [31] = biological target: Gal(b1-4)GlcNAc(b1-2)Man(a1-6)Man(b1-4)GlcNAc(b1-4)GlcNAc
# Outline: as §1
# [32] = biological target: Gal(b1-4)GlcNAc(b1-2)Man(a1-6)[GlcNAc(b1-2)Man(a1-3)]Man(b1-4)GlcNAc(b1-4)GlcNAc
# Outline: as §1
binder,measurement,setting,value
B1,glycan array binding signal (z-score),[1],0.785
same,glycan array binding signal (z-score),[2],0.723
same,glycan array binding signal (z-score),[3],-0.158
same,glycan array binding signal (z-score),[4],-0.566
same,glycan array binding signal (z-score),[5],-0.65
same,glycan array binding signal (z-score),[6],-0.56
same,glycan array binding signal (z-score),[7],0.637
same,glycan array binding signal (z-score),[8],-0.455
same,glycan array binding signal (z-score),[9],0.344
same,glycan array binding signal (z-score),Gal(b1-3)GlcNAc6S,-0.23
same,glycan array binding signal (z-score),[10],-0.144
same,glycan array binding signal (z-score),[11],-0.443
same,glycan array binding signal (z-score),[12],0.571
same,glycan array binding signal (z-score),[13],-0.238
same,glycan array binding signal (z-score),[14],-0.212
same,glycan array binding signal (z-score),[15],0.377
same,glycan array binding signal (z-score),[16],-0.336
same,glycan array binding signal (z-score),[17],-0.334
same,glycan array binding signal (z-score),[18],-0.235
same,glycan array binding signal (z-score),[19],0.638
same,glycan array binding signal (z-score),Gal(b1-4)Gal,-0.38
same,glycan array binding signal (z-score),[20],-0.546
same,glycan array binding signal (z-score),[21],-0.358
same,glycan array binding signal (z-score),Gal(b1-4)Glc,0.09
same,glycan array binding signal (z-score),Gal(b1-4)Glc6S,-0.104
same,glycan array binding signal (z-score),Gal(b1-4)GlcNAc,-0.31
same,glycan array binding signal (z-score),[22],0.302
same,glycan array binding signal (z-score),Gal(b1-4)GlcNAc(b1-2)Man,0.446
same,glycan array binding signal (z-score),[23],-0.034
same,glycan array binding signal (z-score),[24],-0.627
same,glycan array binding signal (z-score),[25],-0.475
same,glycan array binding signal (z-score),[26],0.027
same,glycan array binding signal (z-score),[27],0.141
same,glycan array binding signal (z-score),[28],0.02
same,glycan array binding signal (z-score),[29],-0.471
same,glycan array binding signal (z-score),[30],-0.361
same,glycan array binding signal (z-score),[31],-0.62
same,glycan array binding signal (z-score),[32],-0.271
